For 31 sequences, binding signal results are on record in PMC12820563, “FoxP3 forms a head-to-head dimer in vivo and stabilizes its multimerization on adjacent microsatellites”.

This is one part of the list.

The target in the test is T1, MBP-FoxP1dN (Mus musculus, UniProt P58462 326-579).
T1 sequence: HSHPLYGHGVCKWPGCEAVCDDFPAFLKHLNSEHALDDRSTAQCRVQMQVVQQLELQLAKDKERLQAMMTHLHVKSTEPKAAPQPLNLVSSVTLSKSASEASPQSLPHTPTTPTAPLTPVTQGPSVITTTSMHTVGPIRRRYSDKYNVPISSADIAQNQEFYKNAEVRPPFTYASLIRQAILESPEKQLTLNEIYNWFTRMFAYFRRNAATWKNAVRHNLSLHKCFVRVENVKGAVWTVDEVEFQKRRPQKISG
Put plainly: PD-seq (MBP pull-down with sequencing); 20 mM Tris-HCl pH 7.5, 100 mM NaCl, 1.5 mM MgCl2, 0.4 uM protein, 0.1 uM dsDNA library, 30 min, room temperature, amylose pull-down; high values mean tight binding. The settings on record: protein: recombinant; tags: His6-MBP; chain copies: 2; dsDNA, one strand shown. In a few lines:
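Protein and DNA were mixed at 0.4 µM and 0.1 µM and held for 30 min at room temperature in Tris pH 7.5 buffer with NaCl and MgCl2; the protein was a His6-MBP-tagged, N-terminally truncated mouse FoxP3 or FoxP1 fragment from E. coli, and the DNA a Klenow-filled double-stranded degenerate library. Amylose resin captured the complexes, which were washed three times. Binding is read as reads-per-million enrichment of pull-down versus input after Illumina sequencing, with replicates pooled.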
As for “GATGATTGTTCTCCCAGCTGATGAATTGGTACTCTCGAGTAAACAAATTTTCCTAATCTTTCTGTTCAAGCGCCATCTAC”, the binding signal was 0.973 RPM ratio (pull-down/input).
As to “GATGATTGTTCTCCCAGCTGATGAATTAGAGACTTCGAGTAAACAAATTTTCCTAATCTTTCTGTTCAAGCGCCATCTAC”, the binding signal is 0.926 RPM ratio (pull-down/input).
Next, “GATGATTGTTCTCCCAGCTGATGAATTACTTCATTCGAGTAAACAAATTTTCCTAATCTTTCTGTTCAAGCGCCATCTAC”: 1.11 RPM ratio (pull-down/input); “GATGATTGTTCTCCCAGCTGATGAATTATCAGTATCGAGTAAACAAATTTTCCTAATCTTTCTGTTCAAGCGCCATCTAC”: 1.08 RPM ratio (pull-down/input).
Then “GATGATTGTTCTCCCAGCTGATGAATTAAGGCGTTCGAGTAAACAAATTTTCCTAATCTTTCTGTTCAAGCGCCATCTAC”, with 1.02 RPM ratio (pull-down/input); and “GATGATTGTTCTCCCAGCTGATGAATTAAAGTGCTCGAGTAAACAAATTTTCCTAATCTTTCTGTTCAAGCGCCATCTAC”, with 0.925 RPM ratio (pull-down/input); and “GATGATTGTTCTCCCAGCTGATGAATTGCCTACATCGAGTAAACAAATTTTCCTAATCTTTCTGTTCAAGCGCCATCTAC”, with 1.07 RPM ratio (pull-down/input).
As for “GATGATTGTTCTCCCAGCTGATGAATTGGGATGTTCGAGTAAACAAATTTTCCTAATCTTTCTGTTCAAGCGCCATCTAC”, the binding signal was 0.931 RPM ratio (pull-down/input).
Then “GATGATTGTTCTCCCAGCTGATGAATTTAATACATCGAGTAAACAAATTTTCCTAATCTTTCTGTTCAAGCGCCATCTAC”, with 1.14 RPM ratio (pull-down/input); and “GATGATTGTTCTCCCAGCTGATGAATTAAGTCGATCGAGTAAACAAATTTTCCTAATCTTTCTGTTCAAGCGCCATCTAC”, with 0.986 RPM ratio (pull-down/input).
Regarding “GATGATTGTTCTCCCAGCTGATGAATTAAGCCCTTCGAGTAAACAAATTTTCCTAATCTTTCTGTTCAAGCGCCATCTAC”, the binding signal is 0.841 RPM ratio (pull-down/input).
With “GATGATTGTTCTCCCAGCTGATGAATTCATTAACTCGAGTAAACAAATTTTCCTAATCTTTCTGTTCAAGCGCCATCTAC”, the binding signal is 0.891 RPM ratio (pull-down/input).
Then “GATGATTGTTCTCCCAGCTGATGAATTCGGGTAGTCGAGTAAACAAATTTTCCTAATCTTTCTGTTCAAGCGCCATCTAC”, with 0.855 RPM ratio (pull-down/input); and “GATGATTGTTCTCCCAGCTGATGAATTCTTAGGGTCGAGTAAACAAATTTTCCTAATCTTTCTGTTCAAGCGCCATCTAC”, with 0.841 RPM ratio (pull-down/input); and “GATGATTGTTCTCCCAGCTGATGAATTACAAATCTCGAGTAAACAAATTTTCCTAATCTTTCTGTTCAAGCGCCATCTAC”, with 1.27 RPM ratio (pull-down/input).
For “GATGATTGTTCTCCCAGCTGATGAATTGCGAATATCGAGTAAACAAATTTTCCTAATCTTTCTGTTCAAGCGCCATCTAC”, the binding signal was 1.17 RPM ratio (pull-down/input).
On to “GATGATTGTTCTCCCAGCTGATGAATTGGTATTTTCGAGTAAACAAATTTTCCTAATCTTTCTGTTCAAGCGCCATCTAC”, for which the binding signal is 2.46 RPM ratio (pull-down/input).
Next, “GATGATTGTTCTCCCAGCTGATGAATTGACTCATTCGAGTAAACAAATTTTCCTAATCTTTCTGTTCAAGCGCCATCTAC”: 1.12 RPM ratio (pull-down/input).
On to “GATGATTGTTCTCCCAGCTGATGAATTCCCGCGGTCGAGTAAACAAATTTTCCTAATCTTTCTGTTCAAGCGCCATCTAC”, for which the binding signal is 0.733 RPM ratio (pull-down/input).
Next, “GATGATTGTTCTCCCAGCTGATGAATTCCTTCCTTCGAGTAAACAAATTTTCCTAATCTTTCTGTTCAAGCGCCATCTAC”: 0.839 RPM ratio (pull-down/input); “GATGATTGTTCTCCCAGCTGATGAATTCTGGCTATCGAGTAAACAAATTTTCCTAATCTTTCTGTTCAAGCGCCATCTAC”: 0.891 RPM ratio (pull-down/input).
Next, “GATGATTGTTCTCCCAGCTGATGAATTATTATCCTCGAGTAAACAAATTTTCCTAATCTTTCTGTTCAAGCGCCATCTAC”: 1.19 RPM ratio (pull-down/input); “GATGATTGTTCTCCCAGCTGATGAATTGAGTGCCTCGAGTAAACAAATTTTCCTAATCTTTCTGTTCAAGCGCCATCTAC”: 0.948 RPM ratio (pull-down/input); “GATGATTGTTCTCCCAGCTGATGAATTAACAAGATCGAGTAAACAAATTTTCCTAATCTTTCTGTTCAAGCGCCATCTAC”: 1.09 RPM ratio (pull-down/input).
Next, “GATGATTGTTCTCCCAGCTGATGAATTGCGTGAGTCGAGTAAACAAATTTTCCTAATCTTTCTGTTCAAGCGCCATCTAC”: 1.03 RPM ratio (pull-down/input); “GATGATTGTTCTCCCAGCTGATGAATTTACCCAATCGAGTAAACAAATTTTCCTAATCTTTCTGTTCAAGCGCCATCTAC”: 1.37 RPM ratio (pull-down/input).
As for “GATGATTGTTCTCCCAGCTGATGAATTCTTACAGTCGAGTAAACAAATTTTCCTAATCTTTCTGTTCAAGCGCCATCTAC”, the binding signal is 0.931 RPM ratio (pull-down/input).
As for “GATGATTGTTCTCCCAGCTGATGAATTGCGAGAATCGAGTAAACAAATTTTCCTAATCTTTCTGTTCAAGCGCCATCTAC”, the binding signal was 1.09 RPM ratio (pull-down/input).
In the case of “GATGATTGTTCTCCCAGCTGATGAATTCAAGCGATCGAGTAAACAAATTTTCCTAATCTTTCTGTTCAAGCGCCATCTAC”, the binding signal was 0.847 RPM ratio (pull-down/input).
For “GATGATTGTTCTCCCAGCTGATGAATTGAGCGCGTCGAGTAAACAAATTTTCCTAATCTTTCTGTTCAAGCGCCATCTAC”, the binding signal is 0.952 RPM ratio (pull-down/input).
Take “GATGATTGTTCTCCCAGCTGATGAATTGCAAATCTCGAGTAAACAAATTTTCCTAATCTTTCTGTTCAAGCGCCATCTAC”: the binding signal was 1.32 RPM ratio (pull-down/input).
